The values that follow come from the antibiotic and cytotoxicity screens of Wong et al. (2023).

One assay deals with HSkMC. Description: cytotoxicity call (relative viability < 0.9). The note with it: 10 µM.
The next assay deals with HepG2. Description: cytotoxicity call (relative viability < 0.9). The note with it: 10 µM.
In the next assay the test system is S. aureus RN4220. Description: growth inhibition call (relative growth <= 0.2). The note with it: 50 µM.

This is one part of the list.

As for `COC(=O)Cc1c(C)[nH]c2ncnn2c1=O`, the cytotoxicity call in the assay with HSkMC and in the assay with HepG2 was “inactive” throughout. Besides, the growth inhibition call in the assay on S. aureus RN4220 was “inactive”.

`Cc1noc(C)c1NC(=O)Nc1ccc2c(c1)C(=O)N([C@@H](C)CO)C[C@H](C)[C@H](CN(C)Cc1ccc3c(c1)OCO3)OCCCC[C@@H](C)O2`: the cytotoxicity call in the assay on HSkMC and with HepG2 was “inactive” throughout. Further, the growth inhibition call in the assay on S. aureus RN4220 is “inactive”.

As to `C[C@@H]1CN([C@H](C)CO)C(=O)c2cc(C#CC3(O)CCCC3)cnc2O[C@H]1CN(C)S(=O)(=O)c1cccc(F)c1`, the cytotoxicity call with HSkMC and with HepG2 was “inactive” each time. For the same compound, the growth inhibition call in the assay on S. aureus RN4220 is “inactive”.

As for `C[C@@H]1CN([C@H](C)CO)S(=O)(=O)c2ccc(C#Cc3ccncc3)cc2O[C@@H]1CN(C)C(=O)c1ccncc1`, in the assay on HSkMC, the cytotoxicity call was “inactive”. For the same compound, the cytotoxicity call in the assay on HepG2 was “active”. Also, the growth inhibition call in the assay with S. aureus RN4220 was “inactive”.

With `C[C@H]1CN([C@@H](C)CO)C(=O)c2cccc(NC(=O)Nc3ccc(C(F)(F)F)cc3)c2O[C@@H]1CN(C)C(=O)NC1CCCCC1`, the cytotoxicity call with HSkMC and in the assay with HepG2 was “active” each time. Besides, the growth inhibition call in the assay with S. aureus RN4220 is “inactive”.

Turning to `Cc1noc(C)c1S(=O)(=O)Nc1ccc2c(c1)C(=O)N([C@@H](C)CO)C[C@@H](C)[C@@H](CN(C)S(=O)(=O)c1cn(C)cn1)OCCCC[C@@H](C)O2`, the cytotoxicity call in the assay on HSkMC and with HepG2 was “inactive” in each case. In addition, the growth inhibition call in the assay on S. aureus RN4220 is “inactive”.

On to `C[C@@H]1CN([C@@H](C)CO)C(=O)c2cccc(NC(=O)c3cnccn3)c2O[C@@H]1CN(C)S(=O)(=O)c1ccccc1`, for which the cytotoxicity call in the assay with HSkMC and with HepG2 was “inactive” in each case. Further, in the assay on S. aureus RN4220, the growth inhibition call is “inactive”.

On to `CCC[C@@H](O)C#Cc1cnc2c(c1)C(=O)N([C@H](C)CO)C[C@H](C)[C@H](CN(C)S(C)(=O)=O)O2`, for which the cytotoxicity call with HSkMC and with HepG2 was “inactive” each time. Besides, in the assay with S. aureus RN4220, the growth inhibition call was “inactive”.

For `C[C@@H]1CN([C@H](C)CO)C(=O)Cc2cc(NS(=O)(=O)c3ccc(Cl)cc3)ccc2O[C@@H]1CN(C)Cc1ccc(-c2ccccc2)cc1`, the cytotoxicity call in the assay on HSkMC and in the assay with HepG2 was “active” in each case. In addition, the growth inhibition call in the assay with S. aureus RN4220 is “inactive”.

Regarding `C[C@@H]1CN([C@@H](C)CO)S(=O)(=O)c2ccc(C#Cc3ccccc3F)cc2O[C@H]1CN(C)CC1CCOCC1`, the cytotoxicity call in the assay with HSkMC and with HepG2 was “inactive” in each case. Also, in the assay with S. aureus RN4220, the growth inhibition call was “inactive”.

Take `CCCCC/C=C/C/C=C/C/C=C/C/C=C/CCCC(=O)O[C@H](CO)COC(=O)CCCCCCCCCCCCCCCCC`: the cytotoxicity call with HSkMC and in the assay with HepG2 was “inactive” in each case. Moreover, the growth inhibition call in the assay on S. aureus RN4220 is “inactive”.

With `CC(C)NC(=O)Nc1ccc2c(c1)C(=O)N([C@@H](C)CO)C[C@H](C)[C@@H](CN(C)S(=O)(=O)c1cn(C)cn1)O2`, the cytotoxicity call in the assay with HSkMC and in the assay on HepG2 was “inactive” throughout. In addition, the growth inhibition call in the assay on S. aureus RN4220 is “inactive”.

`COc1ccc(S(=O)(=O)N(C)C[C@@H]2OCCCC[C@H](C)Oc3ccc(NC(=O)Nc4ccc(F)cc4)cc3C(=O)N([C@@H](C)CO)C[C@@H]2C)cc1`: the cytotoxicity call in the assay on HSkMC and with HepG2 was “inactive” each time. In the assay on S. aureus RN4220, the growth inhibition call is “inactive”.

Take `C[C@H]1CN([C@@H](C)CO)C(=O)Cc2cc(NC(=O)C3CC3)ccc2O[C@@H]1CN(C)C(=O)NC1CCCCC1`: the cytotoxicity call in the assay with HSkMC and in the assay on HepG2 was “inactive” in each case. Further, the growth inhibition call in the assay on S. aureus RN4220 was “inactive”.

Consider `C[C@H](CO)N1C[C@H](C)[C@H](CN(C)C(=O)Nc2cccc3ccccc23)Oc2ccc(NC(=O)C3CCCCC3)cc2CC1=O`, for which the cytotoxicity call with HSkMC is “inactive”. Further, the cytotoxicity call in the assay on HepG2 is “active”. For the same compound, the growth inhibition call with S. aureus RN4220 was “inactive”.

Take `C[C@H](CO)N1C[C@H](C)[C@@H](CN(C)C(=O)Nc2ccccc2)Oc2ccc(NC(=O)CCN3CCOCC3)cc2CC1=O`: the cytotoxicity call in the assay with HSkMC and in the assay with HepG2 was “inactive” in each case. The growth inhibition call in the assay with S. aureus RN4220 is “inactive”.

Regarding `COc1ccc2c3c(n(c2c1)C)[C@@H](CO)N(Cc1cc(cc(c1)OC)OC)C[C@]13CCN(CC1)C(=O)CN1CCOCC1`, the cytotoxicity call in the assay with HSkMC and in the assay on HepG2 was “inactive” in each case. The growth inhibition call in the assay on S. aureus RN4220 was “inactive”.

As to `C[C@@H]1CCCCO[C@@H](CN(C)C(=O)C2CCCCC2)[C@@H](C)CN([C@@H](C)CO)C(=O)c2cc(NC(=O)Cc3ccccc3)ccc2O1`, the cytotoxicity call in the assay with HSkMC and with HepG2 was “inactive” each time. Moreover, the growth inhibition call in the assay with S. aureus RN4220 is “inactive”.

Turning to `C[C@H](CO)N1C[C@H](C)[C@H](CN(C)C(=O)C2CCOCC2)Oc2ncc(-c3cccc(C#N)c3)cc2C1=O`, the cytotoxicity call in the assay on HSkMC and with HepG2 was “inactive” each time. Moreover, in the assay with S. aureus RN4220, the growth inhibition call is “inactive”.

As for `C[C@@H]1CCCCO[C@H](CN(C)S(=O)(=O)c2ccc(Cl)cc2)[C@@H](C)CN([C@@H](C)CO)C(=O)c2cc(NS(=O)(=O)c3ccc(F)cc3)ccc2O1`, the cytotoxicity call with HSkMC and with HepG2 was “inactive” throughout. For the same compound, the growth inhibition call with S. aureus RN4220 is “inactive”.

In the case of `COc1ccc(S(=O)(=O)N(C)C[C@@H]2OCCCC[C@@H](C)Oc3ccc(NC(=O)Nc4ccc(F)cc4)cc3C(=O)N([C@H](C)CO)C[C@@H]2C)cc1`, the cytotoxicity call with HSkMC and in the assay on HepG2 was “inactive” throughout. Moreover, in the assay on S. aureus RN4220, the growth inhibition call was “inactive”.

For `Fc1cccc2c(Cl)ccnc12`, the cytotoxicity call in the assay with HSkMC and in the assay with HepG2 was “inactive” throughout. In addition, the growth inhibition call with S. aureus RN4220 was “inactive”.

With `COc1ccc(NC(=O)N(C)C[C@H]2OCCCC[C@@H](C)Oc3ccc(NC(=O)Nc4cccc5ccccc45)cc3C(=O)N([C@H](C)CO)C[C@@H]2C)cc1`, the cytotoxicity call in the assay on HSkMC and with HepG2 was “inactive” in each case. For the same compound, the growth inhibition call with S. aureus RN4220 is “inactive”.

As to `C=C(C)Cn1c(N2CCN(CCO)CC2)nc2c1c(=O)n(C)c(=O)n2C`, the cytotoxicity call with HSkMC and in the assay on HepG2 was “inactive” throughout. The growth inhibition call with S. aureus RN4220 is “inactive”.

For `C[C@@H]1CCCCO[C@H](CN(C)S(=O)(=O)c2ccc(Cl)cc2)[C@@H](C)CN([C@@H](C)CO)C(=O)c2cc(NC(=O)Nc3ccc4c(c3)OCO4)ccc2O1`, the cytotoxicity call in the assay on HSkMC (human skeletal muscle cells) and in the assay on HepG2 was “inactive” each time. The growth inhibition call in the assay with S. aureus RN4220 was “inactive”.

`C[C@@H]1CN([C@H](C)CO)C(=O)c2cc(Br)cnc2O[C@H]1CN(C)S(=O)(=O)c1ccccc1`: the cytotoxicity call in the assay with HSkMC and in the assay with HepG2 was “inactive” each time. Besides, the growth inhibition call with S. aureus RN4220 is “inactive”.

In the case of `Nc1nc2nc[nH]c2c(=O)[nH]1`, the cytotoxicity call with HSkMC and in the assay with HepG2 was “inactive” in each case. For the same compound, the growth inhibition call in the assay with S. aureus RN4220 was “inactive”.

`C[C@H](CO)N1C[C@H](C)[C@@H](CN(C)S(C)(=O)=O)Oc2c(NC(=O)c3cnccn3)cccc2C1=O`: the cytotoxicity call with HSkMC and in the assay on HepG2 was “inactive” each time. Further, the growth inhibition call in the assay on S. aureus RN4220 was “inactive”.
